The labels stand for the following.
B1: GPR68, Q15743 (parent)
chain: MGNITADNSSMSCTIDHTIHQTLAPVVYVTVLVVGFPANCLSLYFGYLQIKARNELGVYLCNLTVADLFYICSLPFWLQYVLQHDNWSHGDLSCQVCGILLYENIYISVGFLCCISVDRYLAVAHPFRFHQFRTLKAAVGVSVVIWAKELLTSIYFLMHEEVIEDENQHRVCFEHYPIQAWQRAINYYRFLVGFLFPICLLLASYQGILRAVRRSHGTQKSRKDQIQRLVLSTVVIFLACFLPYHVLLLVRSVWEASCDFAKGVFNAYHFSLLLTSFNCVADPVLYCFVSETTHRDLARLRGACLAFLTCSRTGRAREAYPLGAPEASGKSGAQGEEPELLTKLHPAFQTPNSPGSGGFPTGRLA

The least precise scores are not listed. Not listed are two conditions whose scores span a narrow range. Names with del lack the residues named; names with ins carry added residues between the positions named. For some assays here: The concentration of ogerin is not given here.

In series [1] the parent is B1. Put plainly: cAMP reporter score (Enrich2 score, wild type = 0); higher = more signal; HEK293T, FACS bins.
Series [2] covers variants of B1. Put plainly: surface expression score (Enrich2 score, wild type = 0); higher = more signal; HEK293T, FACS bins.

With MGNITADNSSMSCTIDHTIHQTLAPVVYVTVLVVGFPANCLSLYFGYLQIKARNELGVYLCNLTVADLFYICSLPFWLQYVLQHDNWSHGDLSCQVCGILLYENIYISVGFLCCISVDRYLAVAHPFRFHQFRTLKAAVGVSVVIWAKELLTSIYFLMHEEVIEDENQHRVCFEHYPIQAWQRAINYYRFLVGFLFPICLLLASYQGILRAVRRSHGTQKSRKDQIQRLVLSTVVIFLACFLPYHVLLLVRSVWEASCTFAKGVFNAYHFSLLLTSFNCVADPVLYCFVSETTHRDLARLRGACLAFLTCSRTGRAREAYPLGAPEASGKSGAQGEEPELLTKLHPAFQTPNSPGSGGFPTGRLA [D259T], the cAMP reporter score was determined as 1.63 in series [1] (pH 5.5); 0.351 in series [1] (pH 6); 1.82 in series [1] (pH 6, modulator: ogerin); 0.994 in series [1] (pH 6.5, modulator: ogerin). The surface expression score in series [2] came to 0.081.
The matching figures for MGNITADNSSMSCTIDHTIHQTLAPVVYVTVLVVGFPANCLSLYFGYLQIKARNELGVYLCNLTVADLFYICSLPFWLQYVLQHDNWSHGDLSCQVCGILLYENIYISVGFLCCISVDRYLAVAHPFRFHQFRTLKAAVGVSVVIWAKELLTSIYFLMHEEVIEDENQHRVCFEHYPIQAWQRAINYYRFLVGFLFPICLLLASYQGILRAVRRSHGTQKSRKDQIQRLVLSTVVIFLACFLPYHVLLLVRSVWEASCYFAKGVFNAYHFSLLLTSFNCVADPVLYCFVSETTHRDLARLRGACLAFLTCSRTGRAREAYPLGAPEASGKSGAQGEEPELLTKLHPAFQTPNSPGSGGFPTGRLA [D259Y]: 0.167, -1.51, 0.284, -0.663 and -1.13.
Regarding MGNITADNSSMSCTIDHTIHQTLAPVVYVTVLVVGFPANCLSLYFGYLQIKARNELGVYLCNLTVADLFYICSLPFWLQYVLQHDNWSHGDLSCQVCGILLYENIYISVGFLCCISVDRYLAVAHPFRFHQFRTLKAAVGVSVVIWAKELLTSIYFLMHEEVIEDENQHRVCFEHYPIQAWQRAINYYRFLVGFLFPICLLLASYQGILRAVRRSHGTQKSRKDQIQRLVLSTVVIFLACFLPYHVLLLVRSVWEASCWFAKGVFNAYHFSLLLTSFNCVADPVLYCFVSETTHRDLARLRGACLAFLTCSRTGRAREAYPLGAPEASGKSGAQGEEPELLTKLHPAFQTPNSPGSGGFPTGRLA [D259W], the cAMP reporter score in series [1] (pH 5.5) is -0.628; in series [1] (pH 6), -0.075; in series [1] (pH 6, modulator: ogerin), -0.9; in series [1] (pH 6.5, modulator: ogerin) it was -1.19. In series [2], the surface expression score was -0.665.
Take MGNITADNSSMSCTIDHTIHQTLAPVVYVTVLVVGFPANCLSLYFGYLQIKARNELGVYLCNLTVADLFYICSLPFWLQYVLQHDNWSHGDLSCQVCGILLYENIYISVGFLCCISVDRYLAVAHPFRFHQFRTLKAAVGVSVVIWAKELLTSIYFLMHEEVIEDENQHRVCFEHYPIQAWQRAINYYRFLVGFLFPICLLLASYQGILRAVRRSHGTQKSRKDQIQRLVLSTVVIFLACFLPYHVLLLVRSVWEASCVFAKGVFNAYHFSLLLTSFNCVADPVLYCFVSETTHRDLARLRGACLAFLTCSRTGRAREAYPLGAPEASGKSGAQGEEPELLTKLHPAFQTPNSPGSGGFPTGRLA [D259V]: the cAMP reporter score in series [1] (pH 5.5) was -0.824; in series [1] (pH 6), -0.658; in series [1] (pH 6, modulator: ogerin), -0.749; in series [1] (pH 6.5, modulator: ogerin), -1.49. The surface expression score in series [2] is -1.3.

Values taken from the GPR68 mutational scans of Howard et al. (2025).
